Measured values: the supplement of paper PMC10338343
± gives the standard deviation. This is a selection; strong and weak results do not stand in their true shares.

test system: MIWI (PIWIL1) piRISC loaded with L1MC piRNA (30 nt); assay: pre-steady-state target cleavage rate (min^-1); MIWI and MILI are mouse PIWI proteins and EfPiwi is from a freshwater sponge; tags in brackets are library labels; higher = faster piRNA-guided slicing of the target; conditions: guide: L1MC piRNA 5'p-UAACUAAAUACUAUGCAAGCUGUAGGUCCU; auxiliary factor: 500 nM mouse GTSF1
Outline: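 Cleave-'n-Seq reactions paired 0.1 nM transcribed, DNA-blocked target RNA library with 1 nM active affinity-purified piRISC holding one synthetic guide, plus or minus 500 nM GTSF1 partner protein, in HEPES–potassium acetate buffer at 33 °C for 0–8 or 0–960 min. After sequencing of uncleaved targets and normalisation to depth and weakly complementary targets, the pre-steady-state cleavage rate was taken from a burst-and-steady-state fit. Three trials were pooled, and k3 was capped at 0.0001 min^-1.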

Sequence	pre-steady-state target cleavage rate
UCCUGGAUGAGCUUGCAUAGUAAUUAGAAA	0.0194 ± 0.0086
UCCUGGAUGUCGAACGAUAGUCAUUUAGUUA	< 0.0001
UCCUGGAUGUCGAACCAUACGUAUUUAGUUA	< 0.0001
UCCUGCUACAGGUUGCAUAGUAUUUUCAAA	0.0858 ± 0.019
UCCACCUACAGCAACCAUAGUAUUUAGUUA	0.147 ± 0.023
UCCUGCUACAGCUUGCAUAGUUUUUUCAAA	0.122 ± 0.022
UCGACCUACAGCUUGCAUACAAUUUAGUAA	0.0421 ± 0.018
UCCUGGAUGAGCUUGCAAGUAUUUAGUUA	0.00592 ± 0.0034
AGCACCUACAGCUUGCAUAGUAUUAAGUUA	1.22 ± 0.17
UCCUGGAUGUGCUUGCAUAGUAUAUACUUA	0.014 ± 0.0055
UCCUGGAUGUCGAUGCAUAGUAUUUACGUUA	0.00834 ± 0.004
UCCUCCUACAGCUUGCAUUGUAUUUUCAAA	0.131 ± 0.028
UCCACCUACAGCUUGCAUAGUAUAUUCAAA	0.266 ± 0.039
UCCUCCUACAGCUUGCAAAGUAUUUUCAAA	0.257 ± 0.039
UCCUGGAUGUGCUUGCUAUGUAUUUAGUUA	0.00387 ± 0.0032
UGGACCUACAGGUUCCAUAGUAUUUAGUUA	0.0909 ± 0.03
UGGACCUACAGCUUGCAUAGUUAUUAGAAA	0.0545 ± 0.014
AGGACCUACAGCAACCAUAGUAUUUAGUAA	0.221 ± 0.033
UCCUGGAUGUCGAACGAUAGAUUUUAGUUA	< 0.0001

Sequence	pre-steady-state target cleavage rate
UCGACCUACAGGAUGCAUAGUAUUUACAAA	0.277 ± 0.032
UCCUGGAUGUCGAACGUAUGCUAUUUAGUUA	< 0.0001
AGGACCUACAGCUUGCAUAGUAUAAACAAA	0.353 ± 0.068
UCCUGCUACAGCUUGCAUAGUUUUUACAAA	0.241 ± 0.05
UCGACCUACAGCUUGCAAUAGUAUUUAGUUA	0.105 ± 0.022
UCCUGCUACAGCUUGCAUAGUAAAAAGAAA	0.07 ± 0.02
AGCUGCUACAGCUUGCAUAGUAUUUUCAAA	0.251 ± 0.051
UGGACCUACAGCUUGCAUAGUAUUAUGUAA	0.0131 ± 0.0045
UCCUGGUACAGCUACCAUAGUAUUUAGUAA	0.184 ± 0.029
UCCACCUACAGCUUGUCAUAGUAUUUAGUUA	0.363 ± 0.033
UCCUGCUACAGCUUGCAUAGUAUAUUCAAA	0.358 ± 0.066
UCCUGGAUGUCGUUGCAUAGUAUUUAAGUUA	0.0172 ± 0.0049
UCGACCUACAGCUUGCUAUGUAUUUAGAAA	0.0126 ± 0.0051
UCCUGGAACUCGUUGCAUAGUAUUUUCAAA	0.00974 ± 0.0044
UCCUCCUACAGCUUGCCAUAGUAUUUAGUUA	0.208 ± 0.03
UCCUGGAUGUCCUUCGCAUAGUAUUUAGUUA	0.0131 ± 0.0043
UCCACCUACAGCUUGGAUAGUAUUUACAAA	0.0852 ± 0.017
UCCUCCUACAGCUUGCUAUGUAUUUAGUAA	0.0593 ± 0.013
